Experimental data as given in the supplement of paper PMC8728848.
The list shows a part of the results.

Experiments:
Experiment in all cases: glycan array binding signal (z-score within array); higher = stronger binding
Settings in all cases: glycan notation: IUPAC condensed, linker removed
Fuc(a1-3)GlcNAc = molecular target: Fuc(a1-3)GlcNAc
Procedure, shortened: (§1)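 Glycan array data were curated from 3228 arrays in the Consortium for Functional Glycomics database and kept only where the protein sequence was available. Glycan names were converted to IUPAC-condensed notation, and columns mapping to the same glycan were averaged. The binding signal is a within-array Z-score, averaged across arrays of the same protein sequence at different concentrations or buffers and across linkers. Negative Z-scores can be read as non-binding.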

[1] = molecular target: Fuc(a1-3)[Gal(b1-4)]Glc6S
Procedure, shortened: as §1

[2] = molecular target: Fuc(a1-3)[Gal(b1-4)]GlcNAc
Procedure, shortened: as §1

[3] = molecular target: Fuc(a1-3)[Gal(b1-4)]GlcNAc(b1-2)Man
Procedure, shortened: as §1

[4] = molecular target: Fuc(a1-3)[Gal(b1-4)]GlcNAc(b1-2)Man(a1-3)[Fuc(a1-3)[Gal(b1-4)]GlcNAc(b1-2)Man(a1-6)]Man(b1-4)GlcNAc(b1-4)GlcNAc
Procedure, shortened: as §1

[5] = molecular target: Fuc(a1-3)[Gal(b1-4)]GlcNAc(b1-2)Man(a1-3)[Fuc(a1-3)[Gal(b1-4)]GlcNAc(b1-2)Man(a1-6)]Man(b1-4)GlcNAc(b1-4)[Fuc(a1-6)]GlcNAc
Procedure, shortened: as §1

[6] = molecular target: Fuc(a1-3)[Gal(b1-4)]GlcNAc(b1-3)Gal(b1-3)[Fuc(a1-4)]GlcNAc
Procedure, shortened: as §1

[7] = molecular target: Fuc(a1-3)[Gal(b1-4)]GlcNAc(b1-3)Gal(b1-4)[Fuc(a1-3)]GlcNAc
Procedure, shortened: as §1

[8] = molecular target: Fuc(a1-3)[Gal(b1-4)]GlcNAc(b1-3)Gal(b1-4)[Fuc(a1-3)]GlcNAc(b1-3)Gal(b1-4)[Fuc(a1-3)]GlcNAc
Procedure, shortened: as §1

[9] = molecular target: Fuc(a1-3)[Gal(b1-4)]GlcNAc(b1-3)GalNAc
Procedure, shortened: as §1

[10] = molecular target: Fuc(a1-3)[Gal(b1-4)]GlcNAc(b1-6)GalNAc
Procedure, shortened: as §1

[11] = molecular target: Fuc(a1-3)[Gal(b1-4)]GlcNAc(b1-6)[Gal(b1-3)GlcNAc(b1-3)]Gal(b1-4)Glc
Procedure, shortened: as §1

[12] = molecular target: Fuc(a1-3)[Gal(b1-4)]GlcNAc6S
Procedure, shortened: as §1

[13] = molecular target: Fuc(a1-3)[Gal3S(b1-4)]Glc
Procedure, shortened: as §1

[14] = molecular target: Fuc(a1-3)[Gal3S(b1-4)]GlcNAc
Procedure, shortened: as §1

[15] = molecular target: Fuc(a1-3)[Gal3S(b1-4)]GlcNAc6S
Procedure, shortened: as §1

[16] = molecular target: Fuc(a1-3)[GalNAc(b1-4)]GlcNAc
Procedure, shortened: as §1

[17] = molecular target: Fuc(a1-3)[GalNAc(b1-4)]GlcNAc6S
Procedure, shortened: as §1

Fuc(a1-4)GlcNAc = molecular target: Fuc(a1-4)GlcNAc
Procedure, shortened: as §1

Fuc(b1-3)GlcNAc = molecular target: Fuc(b1-3)GlcNAc
Procedure, shortened: as §1

Gal(a1-2)Gal = molecular target: Gal(a1-2)Gal
Procedure, shortened: as §1

Gal(a1-3)Gal = molecular target: Gal(a1-3)Gal
Procedure, shortened: as §1

Gal(a1-3)Gal(b1-3)GlcNAc = molecular target: Gal(a1-3)Gal(b1-3)GlcNAc
Procedure, shortened: as §1

[18] = molecular target: Gal(a1-3)Gal(b1-3)GlcNAc(b1-2)Man
Procedure, shortened: as §1

[19] = molecular target: Gal(a1-3)Gal(b1-3)GlcNAc(b1-2)Man(a1-3)[Gal(a1-3)Gal(b1-3)GlcNAc(b1-2)Man(a1-6)]Man(b1-4)GlcNAc(b1-4)GlcNAc
Procedure, shortened: as §1

[20] = molecular target: Gal(a1-3)Gal(b1-3)GlcNAc(b1-3)GalNAc
Procedure, shortened: as §1

[21] = molecular target: Gal(a1-3)Gal(b1-3)GlcNAc(b1-6)GalNAc
Procedure, shortened: as §1

[22] = molecular target: Gal(a1-3)Gal(b1-3)[Fuc(a1-4)]GlcNAc(b1-2)Man(a1-3)[Gal(a1-3)Gal(b1-3)[Fuc(a1-4)]GlcNAc(b1-2)Man(a1-6)]Man(b1-4)GlcNAc(b1-4)GlcNAc
Procedure, shortened: as §1

Gal(a1-3)Gal(b1-4)Glc = molecular target: Gal(a1-3)Gal(b1-4)Glc
Procedure, shortened: as §1

Gal(a1-3)Gal(b1-4)GlcNAc = molecular target: Gal(a1-3)Gal(b1-4)GlcNAc
Procedure, shortened: as §1

[23] = molecular target: Gal(a1-3)Gal(b1-4)GlcNAc(b1-2)Man
Procedure, shortened: as §1

[24] = molecular target: Gal(a1-3)Gal(b1-4)GlcNAc(b1-2)Man(a1-3)[Gal(a1-3)Gal(b1-4)GlcNAc(b1-2)Man(a1-6)]Man(b1-4)GlcNAc(b1-4)GlcNAc
Procedure, shortened: as §1

[25] = molecular target: Gal(a1-3)Gal(b1-4)GlcNAc(b1-3)GalNAc
Procedure, shortened: as §1

[26] = molecular target: Gal(a1-3)Gal(b1-4)GlcNAc(b1-6)GalNAc
Procedure, shortened: as §1

[27] = molecular target: Gal(a1-3)Gal(b1-4)[Fuc(a1-3)]GlcNAc
Procedure, shortened: as §1

[28] = molecular target: Gal(a1-3)Gal(b1-4)[Fuc(a1-3)]GlcNAc(b1-2)Man(a1-3)[Gal(a1-3)Gal(b1-4)[Fuc(a1-3)]GlcNAc(b1-2)Man(a1-6)]Man(b1-4)GlcNAc(b1-4)GlcNAc
Procedure, shortened: as §1

Gal(a1-3)GalNAc = molecular target: Gal(a1-3)GalNAc
Procedure, shortened: as §1

B1: SAOUHSC 00176 (Staphylococcus aureus) (protein)
chain: MSKILKCITLAVVMLLIVTACGPNRSKEDIDKALNKDNSKDKPNQLTMWVDGDKQMAFYKKITDQYTKKTGIKVKLVNIGQNDQLENISLDAPAGKGPDIFFLAHDNTGSAYLQGLAAEIKLSKDELKGFNKQALKAMNYDNKQLALPAIVETTALFYNKKLVKNAPQTLEEVEANAAKLTDSKKKQYGMLFDAKNFYFNYPFLFGNDDYIFKKNGSEYDIHQLGLNSKHVVKNAERLQKWYDKGYLPKAATHDVMIGLFKEGKVGQFVTGPWNINEYQETFGKDLGVTTLPTDGGKPMKPFLGVRGWYLSEYSKHKYWAKDLMLYITSKDTLQKYTDEMSEITGRVDVKSSNPNLKVFEKQARHAEPMPNIPEMRQVWEPMGNASIFISNGKNPKQALDEATNDITQNIKILHPSQNDKKGD
glycan array binding signal (z-score) (Fuc(a1-3)GlcNAc): -0.015 | glycan array binding signal (z-score) [1]: 0.055 | glycan array binding signal (z-score) [2]: -0.127 | glycan array binding signal (z-score) [3]: -0.094 | glycan array binding signal (z-score) [4]: -0.15 | glycan array binding signal (z-score) [5]: -0.009 | glycan array binding signal (z-score) [6]: -0.06 | glycan array binding signal (z-score) [7]: -0.068 | glycan array binding signal (z-score) [8]: -0.111 | glycan array binding signal (z-score) [9]: -0.154 | glycan array binding signal (z-score) [10]: -0.13 | glycan array binding signal (z-score) [11]: -0.172 | glycan array binding signal (z-score) [12]: 0.019 | glycan array binding signal (z-score) [13]: -0.08 | glycan array binding signal (z-score) [14]: -0.097 | glycan array binding signal (z-score) [15]: -0.175 | glycan array binding signal (z-score) [16]: -0.119 | glycan array binding signal (z-score) [17]: -0.072 | glycan array binding signal (z-score) (Fuc(a1-4)GlcNAc): 0.037 | glycan array binding signal (z-score) (Fuc(b1-3)GlcNAc): -0.001 | glycan array binding signal (z-score) (Gal(a1-2)Gal): -0.022 | glycan array binding signal (z-score) (Gal(a1-3)Gal): -0.146 | glycan array binding signal (z-score) (Gal(a1-3)Gal(b1-3)GlcNAc): -0.106 | glycan array binding signal (z-score) [18]: -0.146 | glycan array binding signal (z-score) [19]: 0.584 | glycan array binding signal (z-score) [20]: -0.107 | glycan array binding signal (z-score) [21]: -0.038 | glycan array binding signal (z-score) [22]: 0.078 | glycan array binding signal (z-score) (Gal(a1-3)Gal(b1-4)Glc): -0.01 | glycan array binding signal (z-score) (Gal(a1-3)Gal(b1-4)GlcNAc): -0.063 | glycan array binding signal (z-score) [23]: -0.176 | glycan array binding signal (z-score) [24]: 0.006 | glycan array binding signal (z-score) [25]: -0.09 | glycan array binding signal (z-score) [26]: -0.149 | glycan array binding signal (z-score) [27]: -0.12 | glycan array binding signal (z-score) [28]: -0.104 | glycan array binding signal (z-score) (Gal(a1-3)GalNAc): -0.05
